# Assay results from PubChem BioAssay AID504832 (National Center for Advancing Translational Sciences (NCATS), 2011).
# Screen size: about 310,000 compounds; about 18,000 (5.8%) were called active. The shares of active, inactive and inconclusive entries below differ from those in the screen. The call rests on the fitted dose curve; in most records, active means well fitted inhibition curve with a large enough effect; inconclusive means small, poorly fitted or top-dose-only effect, or another doubt; inactive means no such curve, though single readings can be large or run the other way. No potency is given beside an inconclusive call; the fits are too rough.
# Experiment: Primary qHTS for delayed death inhibitors of the malarial parasite plastid, 48 hour incubation
# Details: P. falciparum luciferase growth in erythrocytes; series mostly up to 28.7 µM; activity change, negative = inhibition: at the top concentration
# Summary of the method: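 Here the parasites carry a stable luciferase gene and grow inside erythrocytes in Albumax-based RPMI medium with compound for one erythrocytic cycle. Activity is scored as loss of luminescent signal.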
# On the % scale 0 is the no-effect control and ±100 the full control effect; potency means the concentration at half of the fitted maximal effect; tags describe the fitted curve by direction and shape.
Structure (SMILES),"activity change, negative = inhibition",Potency
O=C(CCS(=O)(=O)c1ccccc1)N1CCN(c2ccc(F)cc2)CC1,inactive: 74.3%,
CCCCCCCN1CCN=C1Nc1ccccc1,,"inconclusive [inhibitor, single point]"
Cc1ccc(C(=O)CSc2nc3ccccc3c(=O)[nH]2)cc1C,inactive: 40.7%,
CC1CCCN(C(=O)COC(=O)C2CCN(S(=O)(=O)c3c(Cl)cccc3Cl)CC2)C1 (stereo unspecified),,"inconclusive [inhibitor, single point]"
COc1cc(N2CCCC2)c(OC)cc1/C=C1/NC(=S)NC1=O,,"inconclusive [inhibitor, single point]"
O=C(O)c1ccc2c(c1)C(c1ccccc1)OC2=O (stereo unspecified),,"inconclusive [inhibitor, single point]"
O=C1CC2(CCN(C(=O)c3cccc(Br)c3)CC2)Oc2ccccc21,,"inconclusive [inhibitor, single point]"
COc1ccc(OCCCC(=O)Nc2ccc(S(=O)(=O)N3CCOCC3)cc2)cc1,,"inconclusive [inhibitor, single point]"
CCOC(=O)c1c(C)n(C)c2ccc(OCC(O)CNCCc3ccccc3)cc12 (stereo unspecified),,"inconclusive [inhibitor, single point]"
CCOc1ccc(C(=O)N2CCN(c3ccccn3)CC2)cc1OCC,,"inconclusive [inhibitor, partial curve, poor fit]"
COCCNC(=O)Cn1c(=O)n(Cc2ccc(C(=O)NCc3ccco3)cc2)c(=O)c2ccccc21,inactive: -23.4%,
NC(N)=Nc1nc(-c2ccccc2)c2cc(F)ccc2n1,,"inconclusive [inhibitor, single point]"
CCOC(=O)c1nc2c(ccc3ccccc32)cc1C,inactive: 39.3%,
O=C(/C=C/c1ccc([N+](=O)[O-])cc1)c1cccs1,inactive: 14.4%,
COc1ccc(C(=O)N/N=C/c2ccc(OC)c(CN3CCCc4ccccc43)c2)cc1,,active: 1.17 µM
CCn1c(-c2ccncc2)n[nH]c1=S,inactive: 0.239%,
C=C(C)C1CC=C(C)/C(=N/NC(=O)COc2ccccc2C)C1 (stereo unspecified),,"inconclusive [inhibitor, partial curve]"
Cc1c(C)c2cccnc2c2ncccc12,,active: 1.85 µM

Structure (SMILES),"activity change, negative = inhibition",Potency
CC(=O)NC1(C(F)(F)F)C(=O)NC(C)=C1C#N (stereo unspecified),inactive: -4.89%,
COc1ccc(CN(C(=O)c2oc3cc(C)ccc3c2C)C2CCS(=O)(=O)C2)cc1OC (stereo unspecified),,"inconclusive [inhibitor, partial curve]"
CCOC(=O)c1c(NC(=O)C2CCCN(S(=O)(=O)c3ccccc3)C2)sc2c1CCCC2 (stereo unspecified),,"inconclusive [inhibitor, single point]"
CCC1(C)COC2(OC1)C(=O)Nc1ccccc12 (stereo unspecified),,"inconclusive [inhibitor, single point]"
O=C(Nc1ccc(Cl)c(S(=O)(=O)Nc2ccccc2Cl)c1)c1cccs1,inactive: -0.52%,
COC(=O)C1=C(c2ccc(-c3ccccc3)c(F)c2)C[C@@H]2CC[C@H]1N2C(=O)NC1CCCCC1,,"inconclusive [inhibitor, single point]"
CNS(=O)(=O)c1cc(OCC(N)=O)c(C)cc1Cl,inactive: 19%,
CC(=O)Nc1ccc(OC(=O)c2cccnc2)cc1,,"inconclusive [inhibitor, single point]"
C[C@@H](C(=O)Nc1nc2ccccc2s1)N1C(=O)C2CC=CCC2C1=O (stereo partly specified),inactive: 10.1%,
CC(=O)Oc1cccc(C(=O)Nc2ccccc2NC(=O)c2cccc(OC(C)=O)c2)c1,inactive: -11.6%,
Cc1ccc(NC(=O)COC(=O)c2sccc2C)cc1S(=O)(=O)N1CCOCC1,,"inconclusive [inhibitor, single point]"
O=C1c2ccccc2CCC12N=NCC2c1ccc(Cl)cc1 (stereo unspecified),,active: 10.4 µM
CCN1/C(=C/c2ccc3cc(C)ccc3[n+]2C)Sc2ccc3sccc3c21,,"inconclusive [inhibitor, full curve]"
CC1CCCC(CC(=O)O)(CC(=O)O)C1 (stereo unspecified),,"inconclusive [inhibitor, single point]"
Cc1ccc(C)c(S(=O)(=O)N2CCCOC2CNC(=O)C(=O)NC2CCCCC2)c1 (stereo unspecified),,"inconclusive [inhibitor, partial curve, poor fit]"
COc1ccc(NC(=O)c2cc3ccc(O)cc3o/c2=N\O)cc1,inactive: 217%,
CCOc1ccc(C(=O)NCC(=O)NCC(c2ccco2)N2CCCCC2)cc1OCC (stereo unspecified),,"inconclusive [inhibitor, single point]"
CC1CC(C)CN(S(=O)(=O)c2ccc3c(c2)CCN3C(=O)C2CC2)C1 (stereo unspecified),inactive: -18.3%,
